Laboratory results reported in patent US20200231654A1 (Daiichi Sankyo, published 2020).

Biological target: T1, pro-mMMP-9(cat)_His6_FLAG_Avi (mouse, UniProt P41245 20-450)
T1 construct: Secretion signal Met1-Ala19 left out; also called pro mouse MMP-9 enzyme active domain; pro mouse MMP-9; not shown: His tag (His6 by the construct's name)
Assay: immunoprecipitation on Protein G beads, Western blot

T1 sequence (P41245 other isoform, or with tags, fused parts or gaps): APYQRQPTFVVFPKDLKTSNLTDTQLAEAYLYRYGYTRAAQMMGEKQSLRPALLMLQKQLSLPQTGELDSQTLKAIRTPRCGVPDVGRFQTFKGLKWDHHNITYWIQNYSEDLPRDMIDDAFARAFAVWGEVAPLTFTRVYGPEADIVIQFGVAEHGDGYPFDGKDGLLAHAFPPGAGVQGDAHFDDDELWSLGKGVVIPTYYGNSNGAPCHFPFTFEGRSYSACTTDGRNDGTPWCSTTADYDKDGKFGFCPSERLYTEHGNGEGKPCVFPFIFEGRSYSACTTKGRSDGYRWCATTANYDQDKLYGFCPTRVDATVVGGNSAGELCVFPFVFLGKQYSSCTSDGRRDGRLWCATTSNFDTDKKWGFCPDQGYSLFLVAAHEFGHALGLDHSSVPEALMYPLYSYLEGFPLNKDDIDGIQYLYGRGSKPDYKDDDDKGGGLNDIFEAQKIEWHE

binding result: no binding
B1: active MMP-9-binding peptide C-terminal conjugate M91005-Fc-01 (Fc fusion)
chain: GSGMKETAAAKFERQHMDSPDLGTDDDDKAMADIGSANSDPQFGLFSKYRTPNCRKRGGPSCQMSYNPVCGSDMSTYANECTLCMKIREGGHNIKIIRNGPCGASAAAGGGGS[… human IgG1 Fc …]
